# Results published in PMC4336329 (PLoS ONE, 2015).
# The whole screen tested about 310,000 compounds, of which about 2,200 (0.71%) showed an effect of 50% or more. The effect is printed as a negative number. The list shows a part of the results.
# Molecular target: human ether-à-go-go-related gene (hERG) potassium channel (human, UniProt Q12809)
# Assay: primary screen, population patch clamp on CHO cells stably expressing hERG
# human ether-à-go-go-related gene (hERG) potassium channel, sequence (Q12809 whole entry, looked up): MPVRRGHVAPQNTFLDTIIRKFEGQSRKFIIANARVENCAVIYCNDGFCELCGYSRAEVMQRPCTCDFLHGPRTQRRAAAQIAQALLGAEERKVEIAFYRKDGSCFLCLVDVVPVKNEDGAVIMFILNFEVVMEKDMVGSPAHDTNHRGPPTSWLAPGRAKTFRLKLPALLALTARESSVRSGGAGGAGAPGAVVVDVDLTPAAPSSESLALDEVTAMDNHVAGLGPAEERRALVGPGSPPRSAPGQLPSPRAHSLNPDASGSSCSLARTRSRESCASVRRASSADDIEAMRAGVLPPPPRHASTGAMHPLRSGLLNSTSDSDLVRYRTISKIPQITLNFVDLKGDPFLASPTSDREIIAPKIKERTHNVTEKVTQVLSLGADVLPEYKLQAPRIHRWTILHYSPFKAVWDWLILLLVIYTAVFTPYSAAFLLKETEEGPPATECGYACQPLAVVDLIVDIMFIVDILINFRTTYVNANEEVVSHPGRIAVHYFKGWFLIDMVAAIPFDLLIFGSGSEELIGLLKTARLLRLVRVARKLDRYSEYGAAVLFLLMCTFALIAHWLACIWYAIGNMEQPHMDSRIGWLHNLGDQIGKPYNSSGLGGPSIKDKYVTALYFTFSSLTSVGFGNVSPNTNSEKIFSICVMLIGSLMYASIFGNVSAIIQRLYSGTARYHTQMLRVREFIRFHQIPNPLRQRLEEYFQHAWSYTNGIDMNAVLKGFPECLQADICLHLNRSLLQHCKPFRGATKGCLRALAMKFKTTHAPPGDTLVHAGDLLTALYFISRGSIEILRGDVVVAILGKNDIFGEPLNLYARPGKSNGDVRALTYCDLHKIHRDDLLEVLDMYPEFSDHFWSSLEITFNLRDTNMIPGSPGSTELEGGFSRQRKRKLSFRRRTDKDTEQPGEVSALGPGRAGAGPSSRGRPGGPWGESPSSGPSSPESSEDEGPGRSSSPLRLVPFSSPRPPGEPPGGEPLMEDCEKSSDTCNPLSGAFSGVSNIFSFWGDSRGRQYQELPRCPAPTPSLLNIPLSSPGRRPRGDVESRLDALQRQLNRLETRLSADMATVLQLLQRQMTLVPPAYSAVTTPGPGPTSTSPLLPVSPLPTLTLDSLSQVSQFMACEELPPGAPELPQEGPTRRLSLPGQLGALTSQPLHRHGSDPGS
row,Compound,"hERG current change (%, negative = inhibition) at 1uM [%]"
1,CC(CCc1ccccc1)NS(=O)(=O)c1ccccc1F (stereo not shown),0.0633
2,COc1ccc(NC(=O)CN(C)C(=O)c2ccc(NS(=O)(=O)c3cccc([N+](=O)[O-])c3)cc2)cc1,4.19
3,Cn1cccc1CC(=O)N/N=C/c1cc([N+](=O)[O-])ccc1Cl,1.61
4,CCc1nc2sc(C(C)=O)c(N)c2c2c1CCCC2,18
5,O=C(Nc1n[nH]c(=S)s1)c1ccco1,7.25
6,CSc1nc(N2CCCC2)c2c(c1C#N)CC(C)(C)OC2,13.6
7,COc1ccccc1N1C(N)=NC(N)=NC1(C)C.Cl,10.9
8,Cc1cc(C)c2sc(N(CCCN(C)C)C(=O)COc3ccc(Cl)cc3)nc2c1.Cl,0.795
9,COCC(=O)Nc1nc(-c2ccc([N+](=O)[O-])cc2)cs1,19.5
10,O=C(Cc1ccc(Br)cc1)Nc1ccccc1Cl,15.5
11,C=CCn1c(C)nc2c(cnn2-c2ccccc2)c1=O,7.17
12,Cn1c(SCC(=O)N2CCc3ccccc32)nnc1-c1ccc(S(=O)(=O)N2CCCC2)cc1,13.4
13,Cc1nn(C)c(C)c1S(=O)(=O)N(CC(=O)Nc1ccc2c(c1)OCO2)c1ccc(C(C)C)cc1,10.3
14,O=[N+]([O-])/C=C1\NCCN1Cc1ccc(Cl)nc1 [22413311],11.7
15,Cc1cc(C)cc(N(CC(=O)NC2CC3CCC2C3)S(C)(=O)=O)c1 (stereo not shown),2.79
16,COc1ccc(-c2noc(CN(C)C(=O)c3ccoc3C)n2)cc1,11
17,CC1(C)Cc2c(sc3[nH]c(=S)n(Cc4ccco4)c(=O)c23)CO1,14.6
18,COc1ccc2oc(C(=O)Nc3ccc(S(=O)(=O)N(C)C4CCN(C)CC4)cc3)c(C)c2c1,17.8
19,CN(Cc1ccccc1)c1nc2nonc2nc1N1CCCC(CN2CCCC2=O)C1 (stereo not shown),2.4
20,COc1ccc(OC)c(C(=O)/C=C/c2cccnc2)c1,15.3

row,Compound,"hERG current change (%, negative = inhibition) at 1uM [%]"
1,O=C(COc1ccccc1C(=O)O)Nc1nc2ccc([N+](=O)[O-])cc2s1,12.5
2,CCCCN1C2CCCC1CC(NC(=O)c1ccccc1Cl)C2 (stereo not shown),14.3
3,CCC(C(=O)OCC(=O)Nc1ccc2[nH]c(=O)[nH]c2c1)c1ccccc1 (stereo not shown),6.84
4,COc1ccc2nc(N3C(=O)CC(Cc4ccc(C)cc4)C3=O)sc2c1 (stereo not shown),6.83
5,CC1CCCN(C(=O)CCCNC(=O)c2ccc(Cl)cc2)C1 (stereo not shown),11.3
6,OCCSc1nc(-c2ccccc2)nc2c1CCC2,18.3
7,Cc1cc(C)n(C(=O)C(C(=O)c2ccccc2)C(C)C)n1 (stereo not shown),15.9
8,Cc1ccsc1C(=O)OCC(=O)NC1CCCCC1C (stereo not shown),8.9
9,COc1ccc2[nH]cc(CCN3C(=O)CCC3=O)c2c1,9.47
10,Cc1ccc(-c2nnc(N3CCN(C(=O)CN4C(=O)c5ccccc5C4=O)CC3)c3ccccc23)cc1,9.78
11,CC1CCCN(C(=O)c2cccc(S(=O)(=O)N3CCCc4ccccc43)c2)C1 (stereo not shown),6.96
12,CC(OC(=O)Cc1n[nH]c(=O)c2ccccc12)C(=O)Nc1ccccc1[N+](=O)[O-] (stereo not shown),12.3
13,C1CCC(n2nnnc2CN2CCN(C3CCCC3)CC2)CC1,2.62
14,COC(=O)/C(=C/c1ccco1)NC(=O)c1ccc(Br)o1,1.62
15,Cc1ccc(C)c(N(CC(=O)NC2CCCC2)S(=O)(=O)c2ccccc2)c1,15.7
16,COc1cc2c(cc1C=O)OC(C)C2 (stereo not shown),19.8
17,CCOc1cc(C(=O)NC)cc(OCC)c1OCC,13.2
18,CS(=O)(=O)c1ccc(Cl)c(NC(=O)C2CC(=O)N(Cc3ccco3)C2)c1 (stereo not shown),17.5
19,Cn1c(SCc2cccc(Br)c2)nnc1-c1ccccn1,5.9
20,O=C(O)c1cc(-c2cccc(Cl)c2)nc2nc(N3CCCCC3)sc12,9.08

row,Compound,"hERG current change (%, negative = inhibition) at 1uM [%]"
1,CCOC(=O)c1cnc2c(Cl)cccc2c1NCCCN1CCOCC1,-10.1
2,NC(=O)C1CCN(C(=O)CSc2ccccn2)CC1,13.7
3,NC1=NC(=O)/C(=C\C=C\c2ccccc2)S1,16.2
4,CC(c1ccccc1)N1CCC(CNC(=S)Nc2cccc(Cl)c2)C1 (stereo not shown),14.6
5,Cc1ccc(-c2c[n+](CC(=O)OCc3ccccc3)c3n2CCC3)cc1.[Br-],-6.34
6,c1ccc(CNc2nnnn2-c2ccccc2)cc1,-8.7
7,Cc1ccc2oc(=O)c3cnn(CC(=O)NCCC(C)C)c3c2c1,13.4
8,O=S(=O)(NCC1CCCN(Cc2ccccc2O)C1)c1cccc2cccnc12 (stereo not shown),9.31
9,COc1ccc(CC(=O)N2CCN(C(=O)Cc3ccc(OC)cc3)CC2)cc1,2.55
10,CN(C)c1cccc(C(=O)NCc2ccccc2Cl)c1,14.9
11,Cc1ccccc1-n1c(-c2ccc([N+](=O)[O-])cc2)nc2ccccc2c1=O,9.52
12,C=CCn1c(SCC(N)=O)nc2sc3c(c2c1=O)CCC3,6.81
13,Cc1ccc(Nc2cc(C)nc3c(C)cccc23)cc1,-8.56
14,CCOC(=O)CC1COCCN1C(=O)CCc1nnc(-c2ccsc2)o1 (stereo not shown),-7.2
15,CCCN(CC(=O)Nc1ccccc1C)C(=O)c1cc(C)oc1C,10.4
16,CC1Sc2ccc(S(=O)(=O)CCC(=O)NC3CCCCC3C)cc2NC1=O (stereo not shown),3.15
17,O=C(CS(=O)(=O)c1cn(Cc2ccc(Cl)cc2)c2ccccc12)N1CCOCC1,-0.722
18,Cc1cccc2c(N=Nc3ccc(S(=O)(=O)Nc4ccc(Cl)cc4)cc3[N+](=O)[O-])c(O)[nH]c12,13.9
